Laboratory results published in a protein production outcome set (Wang et al. 2014).

Test: label from the status in PepcDB records

Q: With “MAPNGTASSFCLDSTACKITITVVLAVLILITVAGNVVVCLAVGLNRRLRNLTNCFIVSLAITDLLLGLLVLPFSAIYQLSCKWSFGKVFCNIYTSLDVMLCTASILNLFMISLDRYCAVMDPLRYPVLVTPVRVAISLVLIWVISITLSFLSIHLGWNSRNETSKGNHTTSKCKVQVNEVYGLVDGLVTFYLPLLIMCITYYRIFKVARDQAKRINHISSWKAATIREHKATVTLAAVMGAFIICWFPYFTAFVYRGLRGDDAINEVLEAIVLWLGYANSALNPILYAALNRDFRTGYQQLFCCRLANRNSHKTSLRSNASQLSRTQSREPRQQEEKPLKLQVWSGTEVTAPQGATDR” as the sequence, how does the protein production read?
A: failed

Q: For “MDLPVNLTSFSLSTPSPLETNHSLGKDDLRPSSPLLSVFGVLILTLLGFLVAATFAWNLLVLATILRVRTFHRVPHNLVASMAVSDVLVAALVMPLSLVHELSGRRWQLGRRLCQLWIACDVLCCTASIWNVTAIALDRYWSITRHMEYTLRTRKCVSNVMIALTWALSAVISLAPLLFGWGETYSEGSEECQVSREPSYAVFSTVGAFYLPLCVVLFVYWKIYKAAKFRVGSRKTNSVSPISEAVEVKDSAKQPQMVFTVRHATVTFQPEGDTWREQKEQRAALMVGILIGVFVLCWIPFFLTELISPLCSCDIPAIWKSIFLWLGYSNSFFNPLIYTAFNKNYNSAFKNFFSRQH”, which protein production is on record?
A: failed

Q: Which protein production does the source give for “MEPHDSSHMDSEFRYTLFPIVYSIIFVLGVIANGYVLWVFARLYPCKKFNEIKIFMVNLTMADMLFLITLPLWIVYYQNQGNWILPKFLCNVAGCLFFINTYCSVAFLGVITYNRFQAVTRPIKTAQANTRKRGISLSLVIWVAIVGAASYFLILDSTNTVPDSAGSGNVTRCFEHYEKGSVPVLIIHIFIVFSFFLVFLIILFCNLVIIRTLLMQPVQQQRNAEVKRRALWMVCTVLAVFIICFVPHHVVQLPWTLAELGFQDSKFHQAINDAHQVTLCLLSTNCVLDPVIYCFLTKKFRKHLTEKFYSMRSSRKCSRATTDTVTEVVVPFNQIPGNSLKN” here?
A: failed

Q: Which protein production does the source give for “MNTINIAKNDFSDIELAAIPFNTLADHYGERLAREQLALEHESYEMGEARFRKMFERQLKAGEVADNAAAKPLITTLLPKMIARINDWFEEVKAKRGKRPTAFQFLQEIKPEAVAYITIKTTLACLTSADNTTVQAVASAIGRAIEDEARFGRIRDLEAKHFKKNVEEQLNKRVGHVYKKAFMQVVEADMLSKGLLGGEAWSSWHKEDSIHVGVRCIEMLIESTGMVSLHRQNAGVVGQDSETIELAPEYAEAIATRAGALAGISPMFQPCVVPPKPWTGITGGGYWANGRRPLALVRTHSKKALMRYEDVYMPEVYKAINIAQNTAWKINKKVLAVANVITKWKHCPVEDIPAIEREELPMKPEDIDMNPEALTAWKRAAAAVYRKDKARKSRRISLEFMLEQANKFANHKAIWFPYNMDWRGRVYAVSMFNPQGNDMTKGLLTLAKGKPIGKEGYYWLKIHGANCAGVDKVPFPERIKFIEENHENIMACAKSPLENTWWAEQDSPFCFLAFCFEYAGVQHHGLSYNCSLPLAFDGSCSGIQHFSAMLRDEVGGRAVNLLPSETVQDIYGIVAKKVNEILQADAINGTDNEVVTVTDENTGEISEKVKLGTKALAGQWLAYGVTRSVTKRSVMTLAYGSKEFGFRQQVLEDTIQPAIDSGKGLMFTQPNQAAGYMAKLIWESVSVTVVAAVEAMNWLKSAAKLLAAEVKDKKTGEILRKRCAVHWVTPDGFPVWQEYKKPIQTRLNLMFLGQFRLQPTINTNKDSEIDAHKQESGIAPNFVHSQDGSHLRKTVVWAHEKYGIESFALIHDSFGTIPADAANLFKAVRETMVDTYESCDVLADFYDQFADQLHESQLDKMPALPAKGNLNLRDILESDFAFA” here?
A: not failed

Q: Which protein production does the source give for “MQAVDNLTSAPGNTSLCTRDYKITQVLFPLLYTVLFFVGLITNGLAMRIFFQIRSKSNFIIFLKNTVISDLLMILTFPFKILSDAKLGTGPLRTFVCQVTSVIFYFTMYISISFLGLITIDRYQKTTRPFKTSNPKNLLGAKILSVVIWAFMFLLSLPNMILTNRQPRDKNVKKCSFLKSEFGLVWHEIVNYICQVIFWINFLIVIVCYTLITKELYRSYVRTRGVGKVPRKKVNVKVFIIIAVFFICFVPFHFARIPYTLSQTRDVFDCTAENTLFYVKESTLWLTSLNACLDPFIYFFLCKSFRNSLISMLKCPNSATSLSQDNRKKEQDGGDPNEETPM” here?
A: failed

Q: Which protein production does the source give for “MVFSAVLTAFHTGTSNTTFVVYENTYMNITLPPPFQHPDLSPLLRYSFETMAPTGLSSLTVNSTAVPTTPAAFKSLNLPLQITLSAIMIFILFVSFLGNLVVCLMVYQKAAMRSAINILLASLAFADMLLAVLNMPFALVTILTTRWIFGKFFCRVSAMFFWLFVIEGVAILLIISIDRFLIIVQRQDKLNPYRARVLIAVSWATSFCVAFPLAVGNPDLQIPSRAPQCVFGYTTNPGYQAYVILISLISFFIPFLVILYSFMGILNTLRHNALRIHSYPEGICLSQASKLGLMSLQRPFQMSIDMGFKTRAFTTILILFAVFIVCWAPFTTYSLVATFSKHFYYQHNFFEISTWLLWLCYLKSALNPLIYYWRIKKFHDACLDMMPKSFKFLPQLPGHTKRRIRPSAVYVCGEHRTVV” here?
A: failed
